These results are taken from patent US11890324B2, “Compounds for use in inducing myocardial perfusion recovery” (Epoqe Pharma ApS, priority 2018, dated 2024).

The assay deals with rats with acute myocardial infarction (permanent LAD occlusion). Description: Rat model of acute myocardial infarction (permanent LAD occlusion), myocardial perfusion imaging by SPECT/CT. As to conditions: in vivo.

“N-alpha-[2-(2-{2-[(S)-4-Carboxy-4-(17-carboxyheptadecanoylamino)-butyrylamino]-ethoxy}ethoxy)acetyl](Ser1]alpha-human CGRP peptide [Compound I]”: the “Rats that died after the first treatment but before SPECT scan” value is listed as 29%.
